In the supplement of paper PMC11417369:
The other results are listed elsewhere or left out.

test system: PF3D7_0420300 AP2 domain 1 (GST-tagged); assay: gcPBM binding intensity (ln(normalized median fluorescence intensity)); higher = stronger DNA binding
Procedure, shortened: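 For binding intensity, the highest Masliner-normalised natural-log median intensity across replicate spots of either probe orientation was taken. Protein bound to the array was stained with Alexa488 anti-GST antibody and scanned at 488 nm. The protein, GST-tagged P. falciparum DNA-binding domains from E. coli at about 25 μg on average, had been applied for 1 h to an Agilent 4 × 180k array of primer-extended double-stranded 36-bp intergenic genomic probes and negative controls.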

| Sequence | gcPBM binding intensity (ln) |
| --- | --- |
| ATTATTAAAAAGATGTAAATAAATGAATATATGCTT [CACACA_negctrl_site539] | 9.27 |
| ATATAGTATAATAAAAGTACATTTTGATTTTTTCTC [XGTACX_site1797] | 9.11 |
| TATTAAGAATTTACATGTACTTGTTAAATAAGAAAA [XGTACX_site4466] | 9 |
| TTCTATATATTTTAATGTACATATATGATTATTCTT [XGTACX_site8294] | 9.36 |
| GTCGCATTTTATACAAGTACACATGAATTATACAAC [XGTACX_site2200] | 9.5 |
| TAAATAATATCTATCACACACGCATATATACATATA [CACACA_site2622] | 9.49 |
| ATTTATAATCAGGGTTGTACACTTATAGAATTTTTA [XGTACX_site4175] | 9.16 |
| CATAAGAAAATAAAAACATGCACATAAGAAATATAC [TGCATGCA_site842] | 10 |
| AATCTTCATACCAACACATGCACAAAAGAAATAAAA [TGCATGCA_site563] | 9.47 |
| ATATAAATATATGGAAGTACACAAAAAAATTAAAAA [XGTACX_site8624] | 9.54 |
| TATATTTATACATATTGTACATTTTATACTTTTACA [XGTACX_site3884] | 9.33 |
| CTTATGTGCATACCTACACACTTACAGATATATATA [CACACA_site5622] | 9.46 |
| TTCAAATATTTTATTTGTACATAAAAAAGAAAGTTA [XGTACX_site8287] | 8.64 |
| TAGGAAGAATTACTGTGTACTAAAATATTAAAAAGT [XGTACX_site4909] | 9.38 |
| ATAAATGAAAAAAAGCGTACATATAAAAAAATATAT [XGTACX_site5063] | 9.6 |
| ACTTACCCATTTATTACACACATAAAGGAAAATTTT [CACACA_site4873] | 9.7 |
| TGTAAATAATATAATAGTACGCATATTTTTATTGAA [XGTACX_site284] | 9.14 |
| TGTTTATGTATCAATTGTACAAAAAAAAAAAAAAAA [XGTACX_site1590] | 8.75 |
| TTCAAAAAAATGTATACACACATAAGTATAATATAA [CACACA_site3758] | 9.41 |
| GATTTTTTTTTTTTTTCACACACTAATAATATTATC [CACACA_site464] | 9.65 |
| AGTGTAGGTATATAAACACACATACAGATATATAAT [CACACA_site4900] | 9.62 |
| GTATGTATGTATGTATGTACTTATGTAGTCTTAGTT [XGTACX_site1710] | 9.3 |
| TAAAAAATAAAATGGACACACACGTTCAAATTTAGA [CACACA_site2083] | 9.71 |

| Sequence | gcPBM binding intensity (ln) |
| --- | --- |
| TATTCAGGTCCAATGGTGCAATATATTTTTGTAATA [GTGCAC_site9607] | 9.26 |
| ATATATATATATATATGTACACATATATGTGTTTGT [XGTACX_site62] | 9.35 |
| TTAATAAACCTTAGATGTACAGTTATATATAAAATA [XGTACX_site6681] | 9.14 |
| TGAACTCACGAGCACACACACACATATATATATATA [CACACA_site8248] | 9.94 |
| ATATATATTTTTTAATGTACTTATATTTTTATAATA [XGTACX_site2103] | 9.2 |
| ATACAATAAAGGTGTACACATATATGATGCAAGATG [CACACA_site5897] | 9.65 |
| AGCAATTGTGTTTTCACACATAAATATATTCCTCAC [CACACA_site5021] | 9.34 |
| AATTAAACTCACACCACACACAAAAAAAAAAAAAAA [CACACA_site693] | 9.52 |
| GGTCATATTTTTTGCACACAAAAAAAAATATAAAAT [CACACA_site3381] | 9.43 |
| ACCTAAGAACTATTTACACACATATACAAAATATAT [CACACA_site2459] | 9.72 |
| ATTGTTCTATGATTTGTACACACTTTTTTTTAAAAT [CACACA_site2825] | 9.74 |
| AATAAAAAACTACAATATACAAAATTATTAAATCAA [GTGCAC_negctrl_site703] | 9.4 |
| CATATAAAAATATGCACACACAGGAATACAAACATA [CACACA_site684] | 10.2 |
| AAACGTACATAATACACACACATGTATCCATATAAA [CACACA_site5173] | 9.78 |
| ATATATATATATAAAAGTACATGCTTATATATATAT [XGTACX_site3786] | 9.26 |
| TTTAAAAATGCTACATGTACAAAATAAAATATAATA [XGTACX_site2905] | 9.28 |
| AAGTTTATCACAGCCACGCACACATAATATATGTAT [CACACA_site3670] | 9.49 |
| TATATAAACATACATACACACATACAATAAGTAAAA [CACACA_site5118] | 9.9 |
| CACCCACTAATAAACACACACATATATATATATATA [CACACA_site389] | 9.62 |
| ATTTTTTTTATTCAATGTACTTTTTTTTATATATAT [XGTACX_site4978] | 9.67 |
| AATAAAATGAGATGTTGTACAGTTTTGATATATGCA [XGTACX_site3052] | 9.33 |
| TACTTACCAAAATACACACACACACCCAATATATAA [CACACA_site1871] | 10.1 |
| TTAAAAATATATGAATGTACATATATTTATATATAT [XGTACX_site77] | 8.97 |

| Sequence | gcPBM binding intensity (ln) |
| --- | --- |
| TTTAAATTATGAAATTGTACATATAAAAATATTTTA [XGTACX_site4796] | 8.77 |
| TTTTTTTTATTAGTGTGTACGCATTTATTTATACAT [XGTACX_site1599] | 9.48 |
| TATATATTATTTAAAACACACAAAAAAAAAAATTAT [CACACA_site89] | 9.59 |
| TATATTGAATGCAAAAGTACATTTGTGTAAATTTAT [XGTACX_site7611] | 9.11 |
| TTTTTTTTTTTAAAATGTACACGTAATTACATATAT [XGTACX_site752] | 9.19 |
| TGATGGTTACGTTTATGTACACATTACAGTTAGTAT [XGTACX_site998] | 9.29 |
| TTTTTGTATTCTACCTTAACAATCTTAAAGATTTTT [CACACA_negctrl_site1157] | 9.04 |
| TTAAAAATTATATAAGTGCATTAATATTTAGAACAA [GTGCAC_site9773] | 9.14 |
| ACTACATTATTGCATTGTACTTTTTTTTTTTTTTTA [XGTACX_site4605] | 9.57 |
| GAGTTAATATTTAAAAGTACAAGATGAATGTAAAAA [XGTACX_site5810] | 9.42 |
| AAAATATATTAAGGCACACACATACATATATATATA [CACACA_site3723] | 9.81 |
| AATATTACAAAATATTGTCCGTACAAATTTTTAATA [XGTACX_site8129] | 9.07 |
| AAAAAAAAAAAAAAGACACACATATATATATATATA [CACACA_site633] | 9.15 |
| GATGATAAAATATGTACACACAGTTTATACATTTTG [CACACA_site4055] | 9.56 |
| ATATACATATATATGGGTACATATATTAATATATAT [XGTACX_site8358] | 9.2 |
| TCTGTTAATATTTATACACACATATTTATTTATATA [CACACA_site6658] | 9.52 |
| TTAACATATTATAAGTGTACATATTTATAAACAAGA [XGTACX_site8806] | 9.31 |
| ATTTTGAAAAATAAAAGTACATATAATATATCTACA [XGTACX_site7185] | 8.94 |
| CACTCCATATTATACACACACACAAATGAAAAAAAT [CACACA_site3019] | 10.1 |
| TTTAGATATATGGTAGTGCATAATAAAAATATAGCC [GTGCAC_site9449] | 9.24 |
| GCTTCTTAGTATACTTTATAAAATATATATTAAATA [XGTACX_negctrl_site57] | 9.27 |
| TAAAATATAATAAAATGTACACGCATGCAATAGAAT [XGTACX_site7434] | 9.65 |
| ATATCGGGTGCATTAACACACATTTATTTGAATAAA [CACACA_site2350] | 9.24 |

| Sequence | gcPBM binding intensity (ln) |
| --- | --- |
| ATATTAAATATAATTTGTACGCATTTTTTTTTTTTT [XGTACX_site1910] | 9.3 |
| ATATATCATAATAGAGGTACACATATTATATATATA [XGTACX_site782] | 9.29 |
| TTTATAAATATATATACACACACATATATATTATAT [CACACA_site8099] | 9.74 |
| AATTATAATTAATAGAGTACTGAATATATATATATA [XGTACX_site8683] | 9.26 |
| TTCCCTTTTTTTATTTGTACTTATCTTTTAAATAAT [XGTACX_site2497] | 9.66 |
| AGCATTTTTCATTTTGCACACATGTTTTATGTGTAT [CACACA_site3454] | 9.65 |
| TGTTTATTTTTAAAAAGTACATATATAAAAAATATC [XGTACX_site4902] | 8.87 |
| ATAATTTGGAAACACACACACACACCCACATATATA [CACACA_site2286] | 10.3 |
| TTAAATGAAAAATGGGGTACATATATACAAATATAT [XGTACX_site5931] | 9.31 |
| AAAAAAAAATACTACTGTACTTTTTTTGGACATCTA [XGTACX_site1096] | 8.97 |
| TGATTATACGCACGCGCACACACAACCAAAAAAAAA [CACACA_site3537] | 9.57 |
| AAAAAAGGAAAAGATACACACCGTAAATTAAAATTT [CACACA_site5908] | 9.78 |
| GAAGGAATATACAATTGTACTTGGCAAAAAAAAAAA [XGTACX_site1884] | 9.08 |
| ATATATTTATATATTACACACAATATTGTACAGATA [CACACA_site8215] | 9.58 |
| AAATACTTGTCATATTGTACATGTTTGTGATATATA [XGTACX_site3185] | 9.31 |
| GTTAAGAATATATAATGTACTTATTTTAATATAGTA [XGTACX_site6088] | 9.06 |
| AATAATCTATATTGTACACACAAAATGGGAAAAAAA [CACACA_site6969] | 9.74 |
| AATTAGATTTACTGAAGTACTTAATTTATTTTATTA [XGTACX_site3407] | 9.23 |
| AGGTACTTTTTTAAAACACACATATAACATATACAC [CACACA_site6629] | 9.51 |
| ACCCCCAATACGGAAACACACAAGTTATTTTATCAT [CACACA_site8874] | 9.91 |
